# Experimental data published in article PMC4336329 (PLoS ONE, 2015).
# Hit rate of the full screen: of about 310,000 compounds, about 2,200 (0.71%) showed an effect of 50% or more. The effect is printed as a negative number. The list shows a part of the results.
# Biological target: human ether-à-go-go-related gene (hERG) potassium channel (human, UniProt Q12809)
# Assay: primary screen, population patch clamp on CHO cells stably expressing hERG
# Chain of human ether-à-go-go-related gene (hERG) potassium channel (Q12809 whole entry, looked up): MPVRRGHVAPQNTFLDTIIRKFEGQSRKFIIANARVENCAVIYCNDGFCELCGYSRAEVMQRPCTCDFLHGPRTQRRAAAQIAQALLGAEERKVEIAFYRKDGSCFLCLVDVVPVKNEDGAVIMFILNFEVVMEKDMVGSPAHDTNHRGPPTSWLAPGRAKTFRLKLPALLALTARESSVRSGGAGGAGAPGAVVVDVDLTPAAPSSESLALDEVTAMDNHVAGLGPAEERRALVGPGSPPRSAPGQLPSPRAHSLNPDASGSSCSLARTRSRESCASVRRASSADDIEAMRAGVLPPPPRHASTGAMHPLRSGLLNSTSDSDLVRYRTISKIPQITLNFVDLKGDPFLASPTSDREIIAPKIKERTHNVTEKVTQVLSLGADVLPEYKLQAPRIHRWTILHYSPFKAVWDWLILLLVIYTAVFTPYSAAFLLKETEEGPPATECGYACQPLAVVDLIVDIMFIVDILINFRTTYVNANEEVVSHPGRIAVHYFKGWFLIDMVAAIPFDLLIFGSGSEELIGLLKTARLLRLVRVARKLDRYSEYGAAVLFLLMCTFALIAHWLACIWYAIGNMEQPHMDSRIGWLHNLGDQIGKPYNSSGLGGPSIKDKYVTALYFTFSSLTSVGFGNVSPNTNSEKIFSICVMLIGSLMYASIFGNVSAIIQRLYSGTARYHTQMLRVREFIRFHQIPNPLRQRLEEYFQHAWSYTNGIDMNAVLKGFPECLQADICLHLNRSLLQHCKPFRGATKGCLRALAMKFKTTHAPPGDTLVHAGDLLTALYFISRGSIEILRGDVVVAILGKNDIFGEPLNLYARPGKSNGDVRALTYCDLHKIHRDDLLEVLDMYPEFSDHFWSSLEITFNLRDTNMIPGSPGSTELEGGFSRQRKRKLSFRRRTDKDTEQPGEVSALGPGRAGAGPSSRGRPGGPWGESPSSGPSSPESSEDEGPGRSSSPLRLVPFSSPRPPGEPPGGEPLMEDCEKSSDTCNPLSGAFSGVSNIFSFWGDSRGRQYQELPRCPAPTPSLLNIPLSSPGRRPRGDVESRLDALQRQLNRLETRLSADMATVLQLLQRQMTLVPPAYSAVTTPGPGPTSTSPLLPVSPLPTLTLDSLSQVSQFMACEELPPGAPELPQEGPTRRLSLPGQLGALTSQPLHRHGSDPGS
row,SMILES,"hERG current change (%, negative = inhibition) at 1uM [%]"
1,NC(=O)CSc1nnc(-c2ccccn2)n1Cc1ccco1,18.4
2,Cc1csc(N/N=C/c2ccccc2F)n1,12.1
3,O=C(NCC1COc2ccccc2O1)Nc1ccccc1F (stereo not drawn),-0.0005
4,CC(C)CCNC(=O)Cn1c(=O)oc2cc(S(=O)(=O)N3CCc4ccccc43)ccc21,11.3
5,CCc1cccc(NC(=O)CS(=O)Cc2nc(-c3ccc(C)cc3)oc2C)c1 (stereo not drawn),0.247
6,Cc1ccc(O)c(NC(=O)C2CC(c3ccc(F)cc3)=NO2)c1 (stereo not drawn),2.14
7,O=C(CN1CCN(c2ccc(O)cc2)CC1)Nc1cc(S(=O)(=O)N2CCOCC2)ccc1Cl,5.66
8,CSc1ccc(CN(C)CC(=O)Nc2ccc(C)cc2Br)cc1,1.23
9,CC(C)NC(=O)C1CCCN(S(=O)(=O)c2cccc3nonc23)C1 (stereo not drawn),6.87
10,COc1ccc(NC(=O)CCSc2nnnn2C)cc1,10.2
11,CC(C)C[C@H](NC(=O)c1[nH]cnc1C(=O)Nc1ccccc1)C(=O)OC(C)(C)C,6.21
12,COc1ccc(NC(=O)c2cc3ccc(O)cc3o/c2=N\O)cc1,12.4
13,Nc1cc([N+](=O)[O-])ccc1N1C(=O)CCCC1=O,15.4
14,CN(C)C=O.Cc1ccccc1NC(=O)COC(=O)C1=COCCO1,9.34
15,COCCNCC(=O)Nc1ccccc1Sc1ccccc1.O=C(O)C(=O)O,9.2
16,COc1ccc2nc3oc(C(=O)N4CCC(C(N)=O)CC4)cc3cc2c1,7.67
17,CC(Oc1ccccc1Cl)C(=O)Nc1ccccc1C(=O)N1CCOCC1 (stereo not drawn),14
18,CC(=O)Nc1ccc(S(=O)(=O)NC2=C(N3CCN(c4ccc(F)cc4)CC3)C(=O)c3ccccc3C2=O)cc1,12.5
19,Cc1ccc(C(=O)NCCSCc2ccccc2)cc1[N+](=O)[O-],2.33
20,CC1(C)Cc2ccccc2C(NNC(=O)c2ccccn2)=N1,10.8
21,CCc1cc(/C(Cc2cscn2)=N\O)c(O)cc1O,-1.74
22,CCC(C)(C(=O)NC1CCCC1)N(C(=O)CC1NC(=O)NC1=O)c1c(C)n(C)n(-c2ccccc2)c1=O (stereo not drawn),11.5

row,SMILES,"hERG current change (%, negative = inhibition) at 1uM [%]"
1,Clc1cccc(N=C2NN=C(c3ccc4c(c3)OCCO4)CS2)c1,13.8
2,COc1ccccc1C(=O)NCCC(=O)Nc1ccc(C)cn1,5.6
3,CCN(CC)S(=O)(=O)c1ccc(C(=O)N(c2ccc(C)cc2)C2C=CS(=O)(=O)C2)cc1 (stereo not drawn),8.76
4,Cc1ccc(C(=O)COC(=O)c2cn3ccccc3n2)cc1,12
5,Cc1ccc(S(=O)(=O)N2CCN(C3CC(=O)N(Cc4ccccc4)C3=O)CC2)cc1C (stereo not drawn),-3.87
6,Cc1ccc(C(=O)CC2(O)C(=O)N(Cc3ccccc3Cl)c3ccccc32)o1 (stereo not drawn),5.22
7,COc1ccc(CCCCCCOCc2ccccc2)cc1,15
8,COc1ccc(CCNC(=O)Cn2nnc(C(=O)Nc3cc(C)ccc3C)c2N)cc1OC,4.67
9,O=C(Nc1ccc(S(=O)(=O)N2CCCCC2)cc1)C1CC(=O)N(Cc2ccccc2)C1 (stereo not drawn),13.4
10,COc1ccc(C(=O)Cn2c(Br)nc3c2c(=O)n(C)c(=O)n3C)cc1OC,14.7
11,O=C(OCCCN=C1NS(=O)(=O)c2ccccc21)C1CC(=O)N(c2ccc(Cl)cc2)C1 (stereo not drawn),-6.53
12,COc1cccc(-c2nn(C)c3sc(C(=O)N4CCN(c5ccccc5)CC4)cc23)c1,13.8
13,O=C(COC(=O)CNC(=O)c1ccccc1Cl)Nc1ncc(C(F)(F)F)cc1Cl,0.495
14,O=C(NCc1cccnc1)C(=O)Nc1ccc2c(c1)OCO2,14
15,O=C1C2C3C=CC(C3)C2C(=O)N1c1ccc2c(c1)CCC2 (stereo not drawn),5.44
16,CC(=O)Nc1ccc(NC(=O)CSc2ncc(C(=O)Nc3ccc(F)cc3)c(=O)n2C)cc1,-9.81
17,Cc1nn(C)c(C)c1S(=O)(=O)N(CC(=O)NCCCN1CC(C)CC(C)C1)c1ccc(C(C)C)cc1 (stereo not drawn),-43.5
18,Cc1cc(C(=O)Nc2cccnc2)no1,9.73
19,CC(C)(C)NC(=O)Cn1nnc(-c2ccc(Cl)cc2)n1,8.77
20,CCOc1ccc2oc(C(=O)NC(C)(C)CC)c(C)c2c1,8.79
21,COC(=O)Nc1ccc(S(=O)(=O)N2CCC(C(=O)N3CCC(C)CC3)CC2)cc1,18.4
22,O=C(CF)NC(Nc1cccc2cccnc12)C(Cl)(Cl)Cl (stereo not drawn),5.72

row,SMILES,"hERG current change (%, negative = inhibition) at 1uM [%]"
1,CCCNC(=O)c1c(N)n(CC2CCCO2)c2nc3ccccc3nc12 (stereo not drawn),18.2
2,CCOC(=O)N1CCN(C(=O)CSc2ncccn2)CC1,7.68
3,O=C(Nc1ccccc1N1CCCC1)c1ccc(F)c(S(=O)(=O)N2CCOCC2)c1,7.15
4,O=C(Nc1cccc(-c2nc3cc(Cl)ccc3o2)c1)C1CCCO1 (stereo not drawn),8.19
5,CC1OC(C)(C)OC1C1CNc2nc(NC(=O)C(C)(C)C)[nH]c(=O)c2N1C(=O)c1cccnc1 (stereo not drawn),15.6
6,O=C1c2cccc3c([N+](=O)[O-])ccc(c23)C(=O)N1CCc1ccccn1,5.62
7,Oc1ccc(Oc2ccc3c(C(F)(F)F)cc(C(F)(F)F)nc3n2)cc1,6.47
8,CC1CCCN(CCSc2ccc(Cl)cc2)C1.O=C(O)C(=O)O (stereo not drawn),2.16
9,CCCCCn1c(N2CCC(Cc3ccccc3)CC2)nc2c1c(=O)[nH]c(=O)n2C,11.2
10,CCOCCCNC(=O)C(c1ccccc1)N(Cc1cccs1)C(=O)CNC(=O)c1ccccc1 (stereo not drawn),5.39
11,CC(=O)Nc1c(O)nc(SC/C=C/CSc2nc(O)c(NC(C)=O)c(=O)[nH]2)[nH]c1=O,4.69
12,CCCCOc1ccc(-c2nnc(N)s2)cc1,9.39
13,Cc1cc(=O)oc2cc(OCC(=O)c3ccc4c(c3)NC(=O)CO4)ccc12,13.7
14,Cc1ccc(N2C(=O)CC(Sc3ncn[nH]3)C2=O)cc1C (stereo not drawn),11.4
15,COc1cc(/C=C/C(=O)OC2CC3CCC2(C)C3(C)C)ccc1O (stereo not drawn),10.8
16,Cc1ccccc1C1(CCN2CCCCC2)CCOC(C)(C)C1.Cl (stereo not drawn),13
17,Cc1[nH]c2ccc(F)cc2c1CCN(Cc1ccncc1)C(=S)Nc1ccccc1,-2.27
18,Clc1ccc(C2=NNC(=NCc3ccccc3)SC2)cc1,4.07
19,CC(=O)Nc1cccc(-c2nc3ccccc3o2)c1,18.9
20,Cc1c(NC(=O)C2(c3ccc(Cl)cc3)CCCC2)c(=O)n(-c2ccccc2)n1C,-18.6
21,Cc1ccc(NC(=O)C(=O)NCc2ccncc2)cc1,16
22,Cc1cc(C)nc(SCC(N)=O)n1,11.8

row,SMILES,"hERG current change (%, negative = inhibition) at 1uM [%]"
1,OC(CN1CCOCC1)Cn1cnc2ccccc21 (stereo not drawn),15.4
2,COc1ccc(-c2csc3ncnc(N4CCN(c5ccccc5OC)CC4)c23)cc1,9.85
3,CCN1CCN(c2ccc(S(=O)(=O)N3CCCCC3)cc2NC(=O)Cc2ccc(Cl)c(Cl)c2)CC1,-8.07
4,CCOc1ccccc1Nc1ccc(C(=O)O)cc1NC(C)=O,20.2
5,COC(=O)CSc1nnc(-c2ccc(S(=O)(=O)N3CCCCC3)cc2)o1,13.1
6,Cc1cc2ncn(C3CC(=O)N(Cc4ccc(N5CCCC5=O)cc4)C3=O)c2cc1C (stereo not drawn),0.881
7,Cc1ccc(-c2n[nH]c3c2C(c2cccc(O)c2)N(c2ccc(C(=O)O)cc2)C3=O)cc1 (stereo not drawn),11.1
8,Cn1c(N)c(C(=O)COC(=O)c2cccs2)c(=O)n(C)c1=O,5.16
9,COc1ccc(NC(=O)N2CCN(c3cccc(C(F)(F)F)c3)CC2)cc1OC,8.5
10,COC(=O)CSc1nc2ccc(NC(=O)CSc3nnnn3Cc3ccccc3)cc2s1,31.4
11,CC(C)Cc1csc(NC(=O)c2ccc(Cl)cc2)c1C(=O)O,14.7
12,CC1(c2cccc(Br)c2)NC(=O)N(CC(=O)N2CCN(C(=O)c3ccco3)CC2)C1=O (stereo not drawn),12.6
13,COc1ccc(N2CCN(CCC3Oc4cc([N+](=O)[O-])ccc4NC3=O)CC2)cc1 (stereo not drawn),5.36
14,O=C(CCCSc1ccc(Cl)cc1)Nc1cc(S(=O)(=O)N2CCOCC2)ccc1O,15.1
15,O=C(NC1CCCC1)c1sc(=S)n2c1[nH]c(=O)c1ccccc12,13.9
16,COCCCNC(=O)C12CCC(C)(C(=O)C1)C2(C)C (stereo not drawn),4.15
17,COc1ccccc1N(CC(=O)NCCSC(C)(C)C)S(C)(=O)=O,8.11
18,O=C1NN(c2ccc(Cl)c(Cl)c2)C(=O)/C1=C/c1ccc(-c2ccccc2C(=O)O)o1,13
19,O=C(Nc1nccs1)C1CC(=O)N(c2ccccc2Cl)C1 (stereo not drawn),12.7
20,CC(=O)Cc1ccccc1OCC(=O)O,18.9
21,CCOc1ccccc1-c1cc(C(=O)N2CCOCC2)c2ccccc2n1,3.29
